This is an account of results in PMC4336329 (PLoS ONE, 2015).

In all, about 310,000 compounds went through this assay and about 2,200 (0.71%) showed an effect of 50% or more. The effect is printed as a negative number. The list shows a part of the results.

Sequence of human ether-à-go-go-related gene (hERG) potassium channel (Q12809 whole entry, looked up): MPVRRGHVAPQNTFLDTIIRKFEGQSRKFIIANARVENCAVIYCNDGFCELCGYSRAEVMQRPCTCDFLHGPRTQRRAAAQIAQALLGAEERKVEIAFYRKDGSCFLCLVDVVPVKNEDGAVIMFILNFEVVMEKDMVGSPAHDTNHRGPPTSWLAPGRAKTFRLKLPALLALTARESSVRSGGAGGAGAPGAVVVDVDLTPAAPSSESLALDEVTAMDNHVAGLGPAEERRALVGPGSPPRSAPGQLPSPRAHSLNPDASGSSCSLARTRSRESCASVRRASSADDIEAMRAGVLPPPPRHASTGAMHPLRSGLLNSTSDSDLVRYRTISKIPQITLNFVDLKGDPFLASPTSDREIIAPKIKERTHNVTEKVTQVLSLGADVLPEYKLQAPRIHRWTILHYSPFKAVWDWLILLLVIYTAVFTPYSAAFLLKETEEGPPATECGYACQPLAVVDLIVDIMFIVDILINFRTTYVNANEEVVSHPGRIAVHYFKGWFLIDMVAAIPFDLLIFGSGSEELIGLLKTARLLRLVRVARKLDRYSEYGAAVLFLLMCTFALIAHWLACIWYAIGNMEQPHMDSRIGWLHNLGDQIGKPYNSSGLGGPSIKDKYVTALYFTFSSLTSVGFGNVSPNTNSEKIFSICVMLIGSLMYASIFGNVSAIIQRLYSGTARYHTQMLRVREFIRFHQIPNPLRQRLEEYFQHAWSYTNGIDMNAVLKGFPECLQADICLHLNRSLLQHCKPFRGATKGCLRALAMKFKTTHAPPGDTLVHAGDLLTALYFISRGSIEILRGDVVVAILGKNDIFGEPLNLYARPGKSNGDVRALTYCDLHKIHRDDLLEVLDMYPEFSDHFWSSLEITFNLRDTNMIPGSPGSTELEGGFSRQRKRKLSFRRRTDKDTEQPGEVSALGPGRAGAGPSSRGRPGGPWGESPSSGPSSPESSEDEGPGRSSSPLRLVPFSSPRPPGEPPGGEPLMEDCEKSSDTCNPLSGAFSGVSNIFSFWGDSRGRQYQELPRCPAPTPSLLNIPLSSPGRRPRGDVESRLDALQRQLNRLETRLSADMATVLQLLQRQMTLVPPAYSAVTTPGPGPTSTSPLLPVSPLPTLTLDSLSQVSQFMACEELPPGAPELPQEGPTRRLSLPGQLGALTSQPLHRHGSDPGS

This test addresses human ether-à-go-go-related gene (hERG) potassium channel (human, UniProt Q12809). Nature of the test: primary screen, population patch clamp on CHO cells stably expressing hERG.
For the compound `Cc1occc1C(=O)N1CCN(S(C)(=O)=O)CC1`, the “hERG current change (%, negative = inhibition) at 1uM” value is on record as 3.57%.
Consider `CSCC(C)N1CCC(CO)(CCc2ccccc2)CC1` (centres unmarked), for which the “hERG current change (%, negative = inhibition) at 1uM” value turned out to be 13.9%.
Take `CCOC(=O)c1cc(-c2c(Cl)cccc2Cl)no1`: the “hERG current change (%, negative = inhibition) at 1uM” value came to 15.6%.
For `C/C=C(\CS(=O)(=O)c1ccccc1)S(=O)(=O)c1ccccc1`, the “hERG current change (%, negative = inhibition) at 1uM” value is 6.36%.
Turning to `Cc1cc(C(=O)N/N=C/c2cc(Br)cc([N+](=O)[O-])c2O)c2ccccc2n1`, the “hERG current change (%, negative = inhibition) at 1uM” value was determined as 5.39%.
With `Cc1nc(C)c(-c2csc(Nc3ccc(O)cc3C)n2)s1`, the “hERG current change (%, negative = inhibition) at 1uM” value was 4%.
For `COc1cc2ccccc2cc1C(=O)OCC(=O)N(C)c1c(N)n(Cc2ccccc2)c(=O)[nH]c1=O`, the “hERG current change (%, negative = inhibition) at 1uM” value is 6.83%.
Consider `CCn1cc(S(=O)(=O)Nc2ccc3c(c2)OCCO3)cn1`, for which the “hERG current change (%, negative = inhibition) at 1uM” value came out at 21.5%.
On to `O=C1C2C3C=CC(C2C(=O)N1c1cccc(O)c1)C1C2C(=O)N(c4cccc(O)c4)C(=O)C2C31` (centres unmarked), for which the “hERG current change (%, negative = inhibition) at 1uM” value came to 6.46%.
With `COc1ccc(S(=O)(=O)Nc2c(C)n(C)n(-c3ccccc3)c2=O)cc1`, the “hERG current change (%, negative = inhibition) at 1uM” value is 5.55%.
Regarding `Cn1cc(CCC(=O)NCc2cccc(Cl)c2)c2ccccc21`, the “hERG current change (%, negative = inhibition) at 1uM” value was found to be 16.7%.
Consider `CC(Nc1cc(=O)n(C)c(=O)[nH]1)c1ccccc1` (centres unmarked), for which the “hERG current change (%, negative = inhibition) at 1uM” value turned out to be 12.2%.
As for `Cl.O=C(CN1CCN(C2CCCCC2)CC1)NCCC1=CCCCC1`, the figure is 3.52%.
As for `CCc1cc(SC#N)cc(C)c1N`, the figure is 13.1%; as for `Cc1ccc(C)c(S(=O)(=O)N2CCN(CC(=O)N3CCc4ccccc4C3)CC2)c1.O=C(O)C(=O)O`, -0.895%; as for `O=C(CNC(=O)c1cccc(Br)c1)N/N=C/c1ccc[nH]1`, 13.2%.
As to `Clc1ccccc1CN1CCN(/N=C/C=C/c2ccco2)CC1`, the “hERG current change (%, negative = inhibition) at 1uM” value worked out at 11.7%.
`OCCN1CCN(CCCN2c3ccccc3Sc3ccc(Cl)cc32)CC1`: the “hERG current change (%, negative = inhibition) at 1uM” value is on record as 8.09%.
As to `CCCCc1ccc(NC(=S)NCCN2CCOCC2)cc1`, the “hERG current change (%, negative = inhibition) at 1uM” value is recorded as -15%.
As to `CSc1ccccc1C(=O)NCCSc1ccccc1`, the “hERG current change (%, negative = inhibition) at 1uM” value stood at 7.34%.
Turning to `O=C(CN1C(=O)S/C(=C\c2ccccc2)C1=O)NCCCn1ccnc1`, the “hERG current change (%, negative = inhibition) at 1uM” value turned out to be 6.75%.
For the compound `N#CCCN(C(=O)COC(=O)c1cc(=O)c2ccccc2o1)c1ccccc1`, the “hERG current change (%, negative = inhibition) at 1uM” value came out at 6.41%.
Turning to `COc1cccc(CNc2ccc(C)c(Cl)c2)c1`, the “hERG current change (%, negative = inhibition) at 1uM” value was found to be 21.1%.
For `Cc1c(C(=O)N(Cc2nccn2C)C(C)C)oc2c(F)cccc12`, the “hERG current change (%, negative = inhibition) at 1uM” value is given as -6.44%.
As to `COc1cc2c(cc1OC)CN(CC(=O)Nc1ccc(Cl)cc1Cl)CC2`, the “hERG current change (%, negative = inhibition) at 1uM” value is recorded as 2.03%.
For `O=C(CNC(=O)c1ccc(Cl)cc1)NC1CCCCC1`, the “hERG current change (%, negative = inhibition) at 1uM” value is reported as 11.5%.
